# Several values for one entry are separate records, joined by “and”; a condition that tells them apart may be missing. Equal entries are not always repeated. About 6,000 (1.7%) of roughly 360,000 compounds were called active. The shares of active, inactive and inconclusive entries below differ from those in the screen. Calls come from the whole dose curve; as a rule, active = well fitted cell-killing curve with a large enough effect; inconclusive = small, poorly fitted or top-dose-only effect, or effect the other way; inactive = flat fitted curve, though single readings scatter. Potencies of inconclusive entries are left out as doubtful fits.
# Assay: qHTS for induction of synthetic lethality in tumor cells producing 2HG: qHTS for the HT-1080-NT fibrosarcoma cell line;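 note: NT is the 2HG producing partner of a matched IDH1 knockdown line; nearly all actives have a fitted effect of over 55% in size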;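 for activity, negative = less viability: 0% = DMSO-treated cells and -100% = media-only wells without cells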
# Conditions: HT-1080-NT fibrosarcoma viability, CellTiter-Glo ATP luminescence, 48 h; activity, negative = less viability: at 46.1 µM (top of the series) unless noted
# In short: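 750 cells/well, RPMI + 5% FBS; 2 h settle, compound pin-transfer, 48 h at 37 degrees C. CellTiter-Glo 10 min RT, luminescence. Normalized to DMSO and media-only wells.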
# Potency is the fitted concentration of half-maximal effect; tags give direction and shape of the fitted curve.
SMILES,Potency,"activity, negative = less viability"
CC1(C(=O)NCc2cccc3ccccc23)CCN1CCc1ccccc1 (stereo not given),"inconclusive [cytotoxic, single point]",
CCCOC(=O)c1cc2ccccc2oc1=O,"inconclusive [rising, partial curve, poor fit]",
CCc1ccc(CN(C)C(=O)CCc2nnc(-c3ccc(-c4ccccc4)cc3)o2)nc1,"inconclusive [cytotoxic, single point]",
C=C1C(=O)OC2CC1C(O)CC(C)=CCCC(C)=CC(O)CC2C (stereo not given),active: 14.6 µM,
Cc1cc(C)nc(NS(=O)(=O)c2ccc(NC(=O)CN3C(=O)S/C(=C\c4ccccc4)C3=O)cc2)n1,"inconclusive [cytotoxic, single point]",
Cc1nc(-c2ccc(S(=O)(=O)N3CCN(Cc4ccccc4)CC3)s2)cs1,"inconclusive [cytotoxic, single point]",
COCCNC(=O)C1(C)CCCN(CCC(=O)c2ccc(Br)cc2)C1 (stereo not given),"inconclusive [cytotoxic, single point]",
O=C(COc1ccc(/C=N/NC(=O)C(=O)N2CCCCC2)cc1)Nc1ccccc1Cl,,inactive: -0.907%
CCCCn1c(N2CCC(Cc3ccccc3)CC2)nc2c1c(=O)[nH]c(=O)n2C,"inconclusive [cytotoxic, single point]",
Cc1ccc(-n2[nH]c(C)c(C=NC34CN5CN(CN(C5)C3)C4)c2=O)cc1C,"inconclusive [cytotoxic, partial curve]",
Cc1cccc2sc(NNC(=O)c3ccc(S(=O)(=O)N4CCc5ccccc5C4)cc3)nc12,"inconclusive [cytotoxic, single point]",
CC(C)N1CCc2c(sc(NC(=O)c3cc4cc([N+](=O)[O-])ccc4s3)c2C(N)=O)C1,"inconclusive [cytotoxic, single point]",
COC(=O)c1cc2ccsc2n1Cc1nc(-c2ccc(OC)cc2)oc1C,"inconclusive [cytotoxic, single point]",
N#C/C(=C\c1c(Cl)cccc1Cl)c1nc2ccccc2o1,,inactive: -7.88%
O=C(NCc1cc(C(F)(F)F)ccc1F)C1CCC(=O)N(C2CC2)C1 (stereo not given),,inactive: 4.25%
COC(=O)c1c(NC(NC(=O)C(C)(C)C)C(Cl)(Cl)Cl)sc2c1CCC2 (stereo not given),"inconclusive [cytotoxic, single point]",
CC(=Nc1ccccc1)C1=C(O)C(Cc2cccc(F)c2)NC1=O (stereo not given),active: 0.0259 µM,
COCCN(Cc1cc2cc(C)cc(C)c2nc1Cl)C(=O)Nc1ccccc1,active: 10 µM,
O=C(Nc1ccc(Cl)cn1)c1ccccc1F,"inconclusive [cytotoxic, single point]",
Brc1ccc2c(c1)-c1ccccc1C1=NCCN12,active: 23.1 µM,
COc1ccc(-n2c(N)c(C(=O)NCc3ccco3)c3nc4ccccc4nc32)cc1,"inconclusive [cytotoxic, single point]",
Cc1ccc(-n2c(C)cc(/C=N/NC(=O)CN(c3ccc(C)cc3C)S(C)(=O)=O)c2C)cc1,"inconclusive [cytotoxic, single point]",
COc1ccc(CCNC(=O)c2c(C)nn(CC(C)C)c2Cl)cc1,,inactive: -0.11%
O=C(NC1CCCCC1)c1cc2nc(-c3ccco3)cc(C(F)(F)F)n2n1,,inactive: -0.595%

SMILES,Potency,"activity, negative = less viability"
N#CC1=C(SCC(=O)Nc2ccccc2)NC(=O)CC1c1ccco1 (stereo not given),active: 14.1 µM,
CCCCn1c(SCc2nc3ccccc3s2)nc2cc(S(N)(=O)=O)ccc21,"inconclusive [cytotoxic, single point]",
COc1ccc(C2c3c(ncn(CCCO)c3=N)Oc3ccc4ccccc4c32)cc1 (stereo not given),active: 20.6 µM,
OC(CNCCc1ccccc1)COc1ccc(OCC(O)CNCCc2ccccc2)cc1 (stereo not given),"inconclusive [cytotoxic, single point]",
CCOCc1c(C(=O)NC2=Nc3ccccc3NC(CC)=C2C(=O)OCC)oc2ccccc12,"inconclusive [cytotoxic, full curve]",
CCOC(=O)N1CCC(NC(=O)c2ccc(Cl)cc2)CC1,,inactive: 4.7%
CCCCCCCCCCCCCCCCn1cc[n+](C)c1,active: 18.4 µM and active: 16.4 µM,
COc1ccccc1CNS(=O)(=O)c1ccc2c(c1)CC(C)N2C(=O)C1CCC1 (stereo not given),,inactive: -15.1%
Cc1c(-c2ccccc2)nc2ccccc2c1C(=O)OCC(=O)Nc1ncc(C(F)(F)F)cc1Cl,,inactive: -7.34%
COC(=O)[C@]1(C)N[C@H](CN(C)C(C)=O)[C@@H]2C(=O)N(Cc3ccccc3)C(=O)[C@@H]21,,inactive: 16%
CCN(C[C@H]1N[C@@](CC)(C(=O)OC)[C@H]2C(=O)N(Cc3ccccc3)C(=O)[C@@H]12)C(=O)c1ccc(F)cc1,,inactive: 6.17%
COc1ccc(/C=N/NC(=O)CNc2n[nH]c(=O)[nH]c2=O)cc1OC,"inconclusive [rising, single point]",
Cc1ccc(C(=O)CSc2nnc(-c3c[nH]c4ccccc34)o2)cc1,"inconclusive [cytotoxic, partial curve]",
O=C(NNC(=O)c1ccccn1)c1ccc(OC(F)F)cc1,"inconclusive [cytotoxic, single point]",
CN1CCN(c2ccccc2NC(=O)c2sc3ccccc3c2Cl)CC1,"inconclusive [cytotoxic, partial curve, poor fit]",
CCc1ccc(C(=O)Nc2ccc(C)c(NS(C)(=O)=O)c2)cc1,"inconclusive [cytotoxic, single point]",
O=C(CSc1nc(-c2ccccc2)cc(C(F)(F)F)n1)NCc1ccco1,,inactive: 0%
O=C(NC(c1ccc(F)cc1)c1cnccn1)C1CCN(CCOc2ccc(Cl)cc2Cl)CC1 (stereo not given),"inconclusive [cytotoxic, single point]",
O=[N+]([O-])/C(N=Nc1ccccc1)=N\Nc1ccccc1,"inconclusive [cytotoxic, partial curve, poor fit]",
Cc1cc(C)n(S(=O)(=O)c2cc(C(=O)O)c(Cl)cc2Cl)n1,,inactive: 7.81%
Cc1cc(C(=O)N(C)C)sc1-c1ccccc1,,inconclusive: 11.2%
O=C(Nc1ccc(Cl)cn1)c1cccc(F)c1,"inconclusive [cytotoxic, partial curve]",
O=C(Cc1ccccc1[N+](=O)[O-])NCCCc1ccccc1,,inactive: -14.7%
CSc1cccc(NC(=O)CN(C)S(=O)(=O)c2cnc[nH]2)c1,,inactive: -3.8%

SMILES,Potency,"activity, negative = less viability"
O=C1/C(=C/c2ccc(O)cc2)COc2ccccc21,"inconclusive [cytotoxic, single point]",
OCC1(Cc2ccc(F)cc2)CCCN(Cc2ccc(F)cc2Cl)C1 (stereo not given),"inconclusive [cytotoxic, single point]",
Cc1cc(N2CCCCC2)nc(N2CCCCC2)n1,,inactive: 4.51%
CC1(C)Oc2ccc(C(=O)Nc3ccccc3F)cc2N(CC(=O)N2CCOCC2)C1=O,,inactive: 5.37%
O=C1CN(C(=O)CSc2nc3ccccc3n2CCc2ccccc2)c2ccccc2N1,,inactive: 10.9%
Cc1cccc(Sc2ccc([N+](=O)[O-])cc2[N+](=O)[O-])n1,"inconclusive [cytotoxic, partial curve]",
Cc1cc(Nc2ccc(Br)cc2)nc2ccccc12,"inconclusive [cytotoxic, single point]",
CCCCNC(=O)c1nc(-c2ccncc2)oc1-c1ccccc1,"inconclusive [rising, full curve]",
COc1cccc(C#CC2=CC(=O)C[C@H](c3ccc(F)cc3)C2)c1,"inconclusive [cytotoxic, single point]",
COCCc1ccc(OC2(C)CCN(Cc3cccn3-c3nccs3)C2)cc1 (stereo not given),"inconclusive [cytotoxic, single point]",
CN(C)c1ccc(NC(=O)Nc2ccc3c(c2)c(=O)n(C)n3Cc2ccccc2)cc1,"inconclusive [cytotoxic, partial curve, poor fit]",
Cc1ccc(S(=O)(=O)N2CCCCC2)cc1C(=O)N1CCN(c2ccccn2)CC1,,inactive: 3.06%
N#Cc1cc2c(=O)n3ccccc3nc2n(-c2ccccc2Cl)c1=O,"inconclusive [cytotoxic, single point]",
COc1ccc(/C=C/C(=O)Nc2ccc(NC(C)=O)cc2)cc1S(=O)(=O)N1CCOCC1,"inconclusive [cytotoxic, single point]",
COc1ccc2c(c1)c[n+](C)c1c3cc(OC)c(OC)cc3ccc21,active: 9.2 µM,
CC[n+]1c(/C=C/N(C)c2ccccc2)n(-c2ccccc2)c2ccc(-c3nc4ccccc4s3)cc21,"inconclusive [cytotoxic, partial curve, poor fit]",
Cc1ccc(OCC(=O)N/N=C\c2c(C)[nH]n(-c3ccccc3)c2=O)c([N+](=O)[O-])c1,,inactive: -15.9%
COc1cccc(/C=c2\s/c(=C/C(=O)c3ccc(C)cc3)[nH]c2=O)c1OC,,inactive: 2.13%
O=C(COc1ccccc1Cl)NCCNC(=O)c1ccncc1,"inconclusive [rising, single point]",
COC(=O)c1cccc2c1-c1ccccc1/C2=N/O,"inconclusive [cytotoxic, single point]",
CCCOc1ccc(/C=N/Nc2cc(N3CCOCC3)ncn2)c(O)c1,"inconclusive [cytotoxic, full curve]",
CCC(C)(C)n1nnnc1C(c1cc2cc(OC)c(OC)cc2[nH]c1=O)N1CCc2ccccc21 (stereo not given),"inconclusive [cytotoxic, single point]",

# From PubChem BioAssay AID686970 (National Center for Advancing Translational Sciences (NCATS), 2013)
